# From the supplement of paper PMC8728848
# This is one part of the list.
# B1: rCnSL-proB (Clitocybe nebularis) (protein)
# chain: PTFSPIFALLAFLPFGTLASLLPQTQLVFRINPNLPGPNDVFVGYRGTNNVVGAIYERDGIKDTPMNNGADAELGPGSYITDDLFTAQIFASGSAGNNPGTTATVCKIYADGVQWRGAPKGYLPVLYFGNGQAAEQTRQTYLQGLDIPGTAIRFANLAKTPNQGPTAPRQMVVPSGGLQTLLKASCFPANHAALPQVLSYFNVRAALPPGWNIRTGPEFPNWTN
# How the values were obtained:
# Test in all cases: glycan array binding signal (z-score within array); higher = stronger binding
# Conditions in all cases: glycan notation: IUPAC condensed, linker removed
# [1] = biological target: Gal3S(b1-4)Glc
# How it was run: (§1)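 Negative Z-scores can be read as non-binding. The Z-score is calculated within each array and then averaged across arrays of one protein sequence at different concentrations or buffers and across linkers. Arrays, 3228 in all, were curated from the Consortium for Functional Glycomics database and kept only where the protein sequence was available.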
# [2] = biological target: Gal3S(b1-4)Glc6S
# How it was run: as §1
# [3] = biological target: Gal3S(b1-4)GlcNAc
# How it was run: as §1
# [4] = biological target: Gal3S(b1-4)[Fuc(a1-3)]Glc6S
# How it was run: as §1
# [5] = biological target: Gal3S(b1-4)[Fuc(a1-3)]GlcNAc
# How it was run: as §1
# [6] = biological target: Gal3S(b1-4)[Fuc(a1-3)]GlcNAc6S
# How it was run: as §1
# [7] = biological target: Gal3S4S(b1-4)GlcNAc
# How it was run: as §1
# [8] = biological target: Gal3S6S(b1-4)GlcNAc
# How it was run: as §1
# [9] = biological target: Gal3S6S(b1-4)GlcNAc6S
# How it was run: as §1
# [10] = biological target: Gal4S(b1-4)GlcNAc
# How it was run: as §1
# [11] = biological target: Gal4S6S(b1-4)GlcNAc
# How it was run: as §1
# [12] = biological target: Gal6P(b1-4)GlcNAc
# How it was run: as §1
# [13] = biological target: Gal6S(b1-3)GlcNAc
# How it was run: as §1
# [14] = biological target: Gal6S(b1-3)GlcNAc6S
# How it was run: as §1
# [15] = biological target: Gal6S(b1-4)Glc
# How it was run: as §1
# [16] = biological target: Gal6S(b1-4)Glc6S
# How it was run: as §1
# [17] = biological target: Gal6S(b1-4)GlcNAc
# How it was run: as §1
# [18] = biological target: Gal6S(b1-4)GlcNAc6S
# How it was run: as §1
# [19] = biological target: GalNAc(a1-3)Gal
# How it was run: as §1
# [20] = biological target: GalNAc(a1-3)GalNAc
# How it was run: as §1
# [21] = biological target: GalNAc(a1-3)GalNAc(b1-3)Gal(a1-4)Gal(b1-4)Glc
# How it was run: as §1
# [22] = biological target: GalNAc(a1-3)GalNAc(b1-3)Gal(a1-4)Gal(b1-4)GlcNAc
# How it was run: as §1
# [23] = biological target: GalNAc(b1-3)Gal
# How it was run: as §1
# [24] = biological target: GalNAc(b1-3)Gal(a1-4)Gal(b1-4)GlcNAc
# How it was run: as §1
# [25] = biological target: GalNAc(b1-3)Gal(a1-4)Gal(b1-4)GlcNAc(b1-3)Gal(b1-4)Glc
# How it was run: as §1
# [26] = biological target: GalNAc(b1-3)Gal(a1-6)Gal(b1-4)Glc
# How it was run: as §1
# [27] = biological target: GalNAc(b1-3)GalNAc
# How it was run: as §1
# [28] = biological target: GalNAc(b1-3)GlcNAc
# How it was run: as §1
# [29] = biological target: GalNAc(b1-4)Gal(b1-4)Glc
# How it was run: as §1
# [30] = biological target: GalNAc(b1-4)GlcNAc
# How it was run: as §1
# [31] = biological target: GalNAc(b1-4)GlcNAc(b1-2)Man
# How it was run: as §1
# [32] = biological target: GalNAc(b1-4)GlcNAc(b1-2)Man(a1-3)[GalNAc(b1-4)GlcNAc(b1-2)Man(a1-6)]Man(b1-4)GlcNAc(b1-4)GlcNAc
# How it was run: as §1
# [33] = biological target: GalNAc(b1-4)GlcNAc(b1-3)GalNAc(b1-4)GlcNAc
# How it was run: as §1
# [34] = biological target: GalNAc(b1-4)GlcNAc6S
# How it was run: as §1
# [35] = biological target: GalNAc(b1-6)GalNAc
# How it was run: as §1
# [36] = biological target: GalNAc3S(b1-4)GlcNAc
# How it was run: as §1
# [37] = biological target: GalNAc3S(b1-4)GlcNAc3S
# How it was run: as §1
# [38] = biological target: GalNAc3S(b1-4)[Fuc(a1-3)]GlcNAc
# How it was run: as §1
# [39] = biological target: GalNAc4S6S(b1-4)GlcNAc
# How it was run: as §1
# [40] = biological target: GalNAc6S(b1-4)GlcNAc
# How it was run: as §1
# [41] = biological target: Glc(a1-4)Glc
# How it was run: as §1
# [42] = biological target: Glc(a1-4)Glc(a1-4)Glc(a1-4)Glc
# How it was run: as §1
# [43] = biological target: Glc(a1-6)Glc(a1-6)Glc
# How it was run: as §1
# [44] = biological target: Glc(a1-6)Glc(a1-6)Glc(a1-6)Glc
# How it was run: as §1
# [45] = biological target: Glc(b1-4)Glc
# How it was run: as §1
binder,measurement,setting,value
B1,glycan array binding signal (z-score),[1],-0.12
same,glycan array binding signal (z-score),[2],-0.37
same,glycan array binding signal (z-score),[3],-0.913
same,glycan array binding signal (z-score),[4],0.549
same,glycan array binding signal (z-score),[5],0.039
same,glycan array binding signal (z-score),[6],-0.332
same,glycan array binding signal (z-score),[7],-0.739
same,glycan array binding signal (z-score),[8],-0.09
same,glycan array binding signal (z-score),[9],-0.244
same,glycan array binding signal (z-score),[10],-0.447
same,glycan array binding signal (z-score),[11],-0.412
same,glycan array binding signal (z-score),[12],-0.143
same,glycan array binding signal (z-score),[13],-0.094
same,glycan array binding signal (z-score),[14],-0.486
same,glycan array binding signal (z-score),[15],-0.537
same,glycan array binding signal (z-score),[16],-0.411
same,glycan array binding signal (z-score),[17],-0.518
same,glycan array binding signal (z-score),[18],0.042
same,glycan array binding signal (z-score),[19],-0.537
same,glycan array binding signal (z-score),[20],-0.287
same,glycan array binding signal (z-score),[21],0.348
same,glycan array binding signal (z-score),[22],-0.694
same,glycan array binding signal (z-score),[23],-0.441
same,glycan array binding signal (z-score),[24],-0.449
same,glycan array binding signal (z-score),[25],-0.255
same,glycan array binding signal (z-score),[26],-0.531
same,glycan array binding signal (z-score),[27],-0.883
same,glycan array binding signal (z-score),[28],-0.26
same,glycan array binding signal (z-score),[29],-0.165
same,glycan array binding signal (z-score),[30],0.093
same,glycan array binding signal (z-score),[31],-0.543
same,glycan array binding signal (z-score),[32],3.38
same,glycan array binding signal (z-score),[33],-0.589
same,glycan array binding signal (z-score),[34],-0.236
same,glycan array binding signal (z-score),[35],-0.354
same,glycan array binding signal (z-score),[36],-0.48
same,glycan array binding signal (z-score),[37],-0.325
same,glycan array binding signal (z-score),[38],-0.381
same,glycan array binding signal (z-score),[39],-0.116
same,glycan array binding signal (z-score),[40],-0.311
same,glycan array binding signal (z-score),[41],-0.245
same,glycan array binding signal (z-score),[42],-0.184
same,glycan array binding signal (z-score),[43],-0.465
same,glycan array binding signal (z-score),[44],-0.248
same,glycan array binding signal (z-score),[45],-0.648
